The other results are listed elsewhere or left out. Values were computed here from the reads of four pooled replicates and scatter widely.
These sequences were tested against T1, Pho4 (S. cerevisiae) (UniProt P07270) (assay: relative binding free energy (BET-seq); higher = weaker binding). Conditions: reference: library average.
T1 sequence: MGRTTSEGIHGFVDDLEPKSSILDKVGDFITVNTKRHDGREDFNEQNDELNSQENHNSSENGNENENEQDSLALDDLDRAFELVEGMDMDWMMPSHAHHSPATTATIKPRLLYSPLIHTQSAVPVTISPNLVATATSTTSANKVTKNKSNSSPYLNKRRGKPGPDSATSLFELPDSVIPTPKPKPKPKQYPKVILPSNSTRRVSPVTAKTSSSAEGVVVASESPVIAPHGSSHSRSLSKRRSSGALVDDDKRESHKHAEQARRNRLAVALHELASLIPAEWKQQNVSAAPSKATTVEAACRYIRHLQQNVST

| Sequence | relative binding free energy [kcal/mol] |
| --- | --- |
| AGAGGCACGTGAAGAG | 0.19 |
| TCGGACACGTGTGGAT | 0.04 |
| ATAGCCACGTGGGCGG | -0.29 |
| GCGTTCACGTGTATTT | 0.41 |
| TACTTCACGTGGGCAT | 0.3 |
| TAGAGCACGTGTAAGT | -0.05 |
| TGGCCCACGTGATGTG | 0.04 |
| CTGTACACGTGTGTGA | 0.03 |
| GCTTACACGTGGGTAG | -0.08 |
| GAATTCACGTGTGCGG | 0.41 |
| GGGGGCACGTGTAAGA | -0.01 |
| ATTGTCACGTGCATTA | -0.05 |
| TGTACCACGTGAAGTA | 0.35 |
| TTATGCACGTGCTGTC | 0.12 |
| GGATTCACGTGTTAGG | 0.39 |
| CATGACACGTGGGTGA | -0.1 |
| GAGGTCACGTGGGGAA | 0.06 |
| TTGGACACGTGTGAGC | 0.12 |
| TGTGTCACGTGGCGCC | -0.01 |
| CATGGCACGTGGTAGA | -0.17 |
| AATAACACGTGATTTT | 0.36 |
| GGGATCACGTGTTAAT | 0.18 |
| TAAGTCACGTGTTGCA | 0.08 |
| ATTACCACGTGTGTGT | -0.14 |
| TGGCGCACGTGGAAGG | -0.02 |

| Sequence | relative binding free energy [kcal/mol] |
| --- | --- |
| AGATGCACGTGCGGTG | -0.17 |
| TCGGTCACGTGTTTTT | 0.05 |
| CGGGTCACGTGATGCG | 0.12 |
| TGGACCACGTGATAGG | 0.17 |
| GGTATCACGTGGATTG | 0.14 |
| ATGTTCACGTGAGGGA | 0.32 |
| CGGAGCACGTGGCGTA | -0.19 |
| GCGATCACGTGGTGGG | 0.2 |
| TATGTCACGTGGACGG | 0.08 |
| TTAGTCACGTGCGCTT | 0.1 |
| TGGTACACGTGAATGA | 0.2 |
| GTGGGCACGTGTCGTG | 0.01 |
| CGTGTCACGTGGTATT | 0.08 |
| CTGGTCACGTGTAGTA | 0.23 |
| TATGTCACGTGGTCCG | 0 |
| AGGCGCACGTGGGAGA | -0.14 |
| CTAGGCACGTGGTATT | -0.21 |
| GGATTCACGTGATTAT | 0.43 |
| ATTTGCACGTGTTGGA | 0.1 |
| ATGGCCACGTGGTAGA | 0.02 |
| TCCAGCACGTGGTGGG | -0.06 |
| ATCTACACGTGTGGTA | 0.21 |
| TAAGTCACGTGGATGT | 0.18 |
| CTTGGCACGTGAAAGT | 0.17 |
| ATGCGCACGTGTTGGT | -0.03 |

| Sequence | relative binding free energy [kcal/mol] |
| --- | --- |
| TTGATCACGTGGTGGA | 0.01 |
| TGTTTCACGTGATGCA | 0.41 |
| TATAGCACGTGTTGTA | -0.1 |
| AGTTCCACGTGAGGAG | 0.33 |
| AGATGCACGTGATGTT | 0.04 |
| AGTGTCACGTGTTACA | 0 |
| TTGTTCACGTGGAGCT | 0.37 |
| GGGTTCACGTGCTAGT | 0.25 |
| CTTGGCACGTGGATTC | 0.1 |
| TGGGTCACGTGTTGCC | 0.09 |
| AGTGTCACGTGGTCAT | -0.05 |
| CGGATCACGTGTTATG | 0.12 |
| TGCGGCACGTGAGCTT | 0.02 |
| AGTGTCACGTGGGTCC | -0.09 |
| CGGTTCACGTGCATAG | 0.42 |
| CTGGTCACGTGGTAAG | 0.02 |
| GGTGACACGTGGAAGA | 0.13 |
| TATGACACGTGCGGTT | -0.16 |
| GATTCCACGTGTTTTG | 0.1 |
| ATGATCACGTGTCTTG | 0.18 |
| GTGACCACGTGGGGAA | -0.07 |
| TGGGGCACGTGCCGCG | -0.29 |
| AATTTCACGTGTATCG | 0.27 |
| GGTGACACGTGTGAAT | 0.34 |
| CGCTTCACGTGTGTGT | 0.27 |

| Sequence | relative binding free energy [kcal/mol] |
| --- | --- |
| CTGTGCACGTGACGTG | 0.06 |
| GTAGGCACGTGACGAT | 0.12 |
| TTATTCACGTGGAGAC | 0.39 |
| TAATGCACGTGTGGGA | 0.03 |
| ACAGTCACGTGGATGG | -0.02 |
| CATAACACGTGTTGTG | -0.02 |
| ATGTGCACGTGTTGGC | 0 |
| TTATACACGTGTTATT | 0.16 |
| GCGTGCACGTGGGTAC | -0.14 |
| TTATGCACGTGTTTTC | 0 |
| GGGTTCACGTGTTCGA | 0.31 |
| ATGCGCACGTGAGGAG | -0.05 |
| TATTTCACGTGGGACA | 0.16 |
| GTTCGCACGTGGGTTG | -0.09 |
| ATGGGCACGTGTCTTT | -0.13 |
| GTTTACACGTGGAGCT | 0.19 |
| ATATACACGTGTGATG | 0.07 |
| TTTTCCACGTGGTGGG | 0.02 |
| GGTGGCACGTGTCTGG | 0.02 |
| GCGGTCACGTGTAAGT | 0.34 |
| AAGGCCACGTGGGTGA | -0.2 |
| CGTTGCACGTGGGAGA | -0.05 |
| GTGTACACGTGAGTTG | 0.27 |
| ACGTCCACGTGGTGGG | -0.07 |
| GGCCGCACGTGTTGGG | 0.05 |

| Sequence | relative binding free energy [kcal/mol] |
| --- | --- |
| TCTGGCACGTGGTGAA | -0.12 |
| GGAGTCACGTGGGTCT | -0.04 |
| GATAACACGTGGAGTG | -0.05 |
| TCAGTCACGTGGGCAG | -0.04 |
| TTATTCACGTGTGAAG | 0.3 |
| TTAGTCACGTGACATG | 0.3 |
| TATTTCACGTGCTTGA | 0.18 |
| TGTGACACGTGCGGCT | -0.08 |
| TGTTTCACGTGGTTGT | 0.24 |
| CATGGCACGTGTGGGC | -0.17 |
| ATTGACACGTGTTTGA | -0.02 |
| TGCTCCACGTGAGGGT | 0.2 |
| CATTGCACGTGGGTTC | -0.04 |
| GGTACCACGTGGTATG | -0.06 |
| TTAGTCACGTGTGACT | 0.08 |
| AGGGCCACGTGTTGAG | -0.06 |
| TGACACACGTGGTTTT | 0.04 |
| GTCTACACGTGGGTAG | -0.05 |
| TATTGCACGTGAGGGC | 0.11 |
| TAGTGCACGTGGATCA | -0.02 |
| TAATGCACGTGACTTG | 0.18 |
| GCTAGCACGTGGTTTG | -0.09 |
| GGGTTCACGTGGTAGT | 0.36 |
| TTCATCACGTGGAAGG | 0.23 |
| TGTGGCACGTGAGACT | 0.16 |

| Sequence | relative binding free energy [kcal/mol] |
| --- | --- |
| GATTGCACGTGGAGTA | 0.04 |
| ATCTGCACGTGTATTT | -0.03 |
| AGTGTCACGTGACCGT | 0.24 |
| TGATACACGTGTGTGC | 0.01 |
| TAAGACACGTGTTAGT | 0.06 |
| TGGGGCACGTGAAGGG | 0.15 |
| TTCGTCACGTGGTTGT | 0.07 |
| AGAGTCACGTGCGTTT | 0.1 |
| CGTTTCACGTGTGGCG | 0.06 |
| AAGTTCACGTGAGGTC | 0.46 |
| AATGGCACGTGCGGTA | -0.17 |
| TAGAACACGTGGAAGG | 0.06 |
| AGGTGCACGTGCGTTT | -0.15 |
| CTAGTCACGTGTTGTC | 0.1 |
| GATTGCACGTGGGCGA | -0.01 |
| AGTATCACGTGGGTTG | -0.12 |
| ATGAGCACGTGATTGG | 0.1 |
| GGGAGCACGTGGCTGT | -0.1 |
| GGGGACACGTGGTCTG | -0.02 |
| GGTAGCACGTGAGGAG | 0.08 |
| AGATTCACGTGTTTCT | 0.24 |

From the BET-seq Pho4 binding data (Le et al. 2018)
